Among all 48,000 compounds or so, about 550 (1.1%) were called active. Inconclusive results (about 4%) are left out. Cut-off read from the data, not from the text of the source: active = potency below about 15 µM; inconclusive = mostly about 16 µM to 33 µM; inactive = weaker than that. The list shows a part of the results. Bounds are passed on as bounds.
Potency is the fitted concentration of half-maximal effect.

UniProt P04062, sequence (P04062 whole entry, looked up): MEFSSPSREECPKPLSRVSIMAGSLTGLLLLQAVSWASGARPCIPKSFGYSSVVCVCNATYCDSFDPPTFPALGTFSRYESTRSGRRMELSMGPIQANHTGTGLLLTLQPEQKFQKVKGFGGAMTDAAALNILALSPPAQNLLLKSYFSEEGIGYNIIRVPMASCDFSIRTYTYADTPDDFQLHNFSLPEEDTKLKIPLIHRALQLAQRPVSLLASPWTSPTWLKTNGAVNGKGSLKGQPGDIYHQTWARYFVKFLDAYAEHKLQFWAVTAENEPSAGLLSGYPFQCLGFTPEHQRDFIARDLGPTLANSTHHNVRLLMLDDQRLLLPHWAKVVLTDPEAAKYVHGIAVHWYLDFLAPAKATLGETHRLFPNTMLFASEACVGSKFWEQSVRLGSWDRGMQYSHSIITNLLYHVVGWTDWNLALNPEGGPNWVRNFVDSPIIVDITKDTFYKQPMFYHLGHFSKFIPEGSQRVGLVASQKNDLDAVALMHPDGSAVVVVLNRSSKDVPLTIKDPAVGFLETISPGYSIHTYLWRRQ

The target of the test is Lysosomal acid glucosylceramidase (Homo sapiens) (UniProt P04062). The test can be described thus: Glucocerebrosidase.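 Note: the screen sought inhibitors.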 Particulars: purified enzyme, resorufin glucoside fluorescence (screen aimed at inhibitors), 20 min. In short, it runs like this:
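Normal human glucocerebrosidase (0.2 nM final) was assayed with resorufin β-D-glucopyranoside (30 uM final) in 50mM citric acid/KH2PO4, 10mM sodium taurocholate, 0.01% tween-20, pH 5.9. Compounds were titrated; fluorescence (Ex 548, Em 600) read after 20 min at RT.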
Take `Cc1nn(Cc2ccccc2)c(Cl)c1C(=O)OCc1nnc(-c2ccccc2)o1`: the Potency was inactive: > 76.9 µM.

Consider `Cc1noc(/C=C/N(C)C)c1S(=O)(=O)N1CCCC(C(=O)NC(C)c2ccccc2)C1` (stereo not given), for which the Potency was inactive: > 76.9 µM.

On to `CCOC(=O)Cc1csc(NC(=O)c2cccnc2)n1`, for which the Potency is inactive: > 76.9 µM.

Consider `Cc1nnc(SCC(=O)N2CCN(S(=O)(=O)c3ccccc3)CC2)n1Cc1ccccc1`, for which the Potency was inactive: > 76.9 µM. The result for `COc1cc(-c2csc(C)n2)ccc1O` reads inactive: > 76.9 µM; that for `COc1cccc(CC(NC(C)=O)C(=O)NC2CCN(c3nc(C)cc(C)c3C#N)CC2)c1OC` (stereo not given), inactive: > 76.9 µM; that for `Cc1ccccc1C(C(=O)NCc1ccco1)N(CC1CCCO1)C(=O)Cn1nnc2ccccc21` (stereo not given), inactive: > 76.9 µM. The value for `Cc1nc2ccccc2c2c1C(=O)N(C)C2=O` was inactive: > 76.9 µM; that for `O=C(Nc1cccc2cccnc12)c1cccnc1` was inactive: > 76.9 µM.

In the case of `Cc1cc(NC(=O)CSc2ccc(Cl)cc2)no1`, the Potency was inactive: > 76.9 µM. The result for `O=C(OCn1nnc2ccccc2c1=O)c1ccc(Br)o1` reads inactive: > 76.9 µM; that for `CCOc1ccc(Oc2nc(NCC(C)C)nc(N(C)C)n2)nn1`, inactive: > 76.9 µM. The value for `CCCC(=O)Nc1nnc(COC)s1` was inactive: > 76.9 µM; that for `O=C(/C=C1\NC2(CCCC2)Cc2ccccc21)N1CCOCC1` was inactive: > 76.9 µM. The value for `CCCCCCNC(=O)CCNC(=O)c1cc(OC)c(OC)c(OC)c1` was inactive: > 76.9 µM; that for `C=CCN1C(=O)CN=C1Nc1cc(C)cc(C)c1` was inactive: > 76.9 µM. Turning to `CC(C)n1c(=NC(=O)c2ccco2)c(C#N)cc2c(=O)n3ccccc3cc21`, the Potency was inactive: > 76.9 µM. The result for `CCC(=O)NC(C)C(c1cccs1)N1CCN(c2ccccc2)CC1` (stereo not given) reads inactive: > 76.9 µM. The result for `O=C1N(S(=O)(=O)c2ccccc2F)C(=O)C2(CCCC2)N1S(=O)(=O)c1ccccc1F` reads inactive: > 76.9 µM; that for `CCOc1ccc(OCC(=O)c2c(O)c3ccccc3oc2=O)cc1`, inactive: > 76.9 µM. In the case of `Cc1nnc(SC(C)C(=O)Nc2ccc(S(=O)(=O)N3CCCCC3)cc2)s1` (stereo not given), the Potency was inactive: > 76.9 µM.

With `CC(=O)N1CCc2cc(S(=O)(=O)NC(CC(C)C)C(=O)N3CCc4ccccc4C3)ccc21` (stereo not given), the Potency was inactive: > 76.9 µM.

Take `COc1ccc(OC)c(-c2cc(C(=O)Nc3cc(C)on3)no2)c1`: the Potency is inactive: > 76.9 µM. On to `CCOc1ncccc1C(=O)OCC(=O)c1c(N)n(C)c(=O)n(C)c1=O`, for which the Potency was inactive: > 76.9 µM. The result for `CC(C)(C)C(=O)C(CO)(Oc1ccc(Cl)cc1)n1cncn1` (stereo not given) reads inactive: > 76.9 µM.

These data come from PubChem BioAssay AID360 (National Center for Advancing Translational Sciences (NCATS), 2006).
